Among the data in US7423058B2, “Inhibitors of hepatitis C virus NS3 protease” (Schering Corporation, priority 2004, dated 2008) are Ki values, retold here.

SMILES strings stand for the structures.

The first assay deals with Recombinant heterodimeric HCV NS3/NS4A protease (strain 1a) (Hepatitis C virus genotype 1a, UniProt P27958). The experiment in a line: Spectrophotometric assay for HCV protease inhibitory activity (chromogenic ester substrates). The settings on record: Table 3, Esters; read-out: Ki* Range. It is filed as biochemical.
By Ki is commonly meant a measure of affinity in units of concentration, obtained from inhibition or displacement. On to `CC1(C)[C@@H]2[C@@H](C(=O)NC(CC3CC3)C(=O)C(N)=O)N(C(=O)[C@@H](NC(=O)N[C@H](C(=O)OCC3CC3)C3(C(F)(F)F)CC3)C3(C(F)(F)F)CC3)C[C@@H]21` (stereo partly drawn) [compound 4643], for which the Ki is greater than 0.25 µM.
`COC(=O)C(C)(C)NC(=O)N[C@H](C(=O)N1C[C@H]2[C@@H]([C@H]1C(=O)NC(CC1CC1)C(=O)C(N)=O)C2(Cl)Cl)C(C)(C)C` (stereo partly drawn) [compound 4644]: the Ki was greater than 0.25 µM.
For `CC(C)(C)[C@H](NC(=O)NC1(C(=O)OCc2ccc3ccccc3c2)CCCCC1)C(=O)N1C[C@H]2[C@@H]([C@H]1C(=O)NC(CC1CCC1)C(=O)C(N)=O)C2(C)C` (stereo partly drawn) [compound 4645], the inhibition constant Ki was greater than 0.25 µM.
With `CC(C)[C@H](NC(=O)N[C@H](C(=O)N1C[C@H]2[C@@H]([C@H]1C(=O)NC(CC1CC1)C(=O)C(=O)NCC1CC1)C2(C)C)C(C)(C)C)C(=O)OC(C)(C)C` (stereo partly drawn) [compound 4647], the Ki is greater than 0.25 µM.
With `CC(C)(C)OC(=O)C1(NC(=O)N[C@H](C(=O)N2C[C@H]3[C@@H]([C@H]2C(=O)NC(CC2CC2)C(=O)C(N)=O)C3(C)C)C(C)(C)C)CCC(=O)CC1` (stereo partly drawn) [compound 4648], the Ki is greater than 0.25 µM.
`C#CCCCC(NC(=O)[C@@H]1[C@@H]2[C@H](CN1C(=O)[C@@H](NC(=O)N[C@H](C(=O)OC(C)(C)C)C(C)(C)C)C(C)(C)C)C2(C)C)C(=O)C(=O)NCC=C` (stereo partly drawn) [compound 4649]: the Ki was greater than 0.25 µM.
Turning to `COC(=O)C1(NC(=O)N[C@H](C(=O)N2C[C@H]3[C@@H]([C@H]2C(=O)NC(CC2CC2)C(=O)C(N)=O)C3(C)C)C(C)(C)C)CCC(OC(C)=O)CC1` (stereo partly drawn) [compound 4650], the Ki is greater than 0.25 µM.
As for `CC1(C)[C@@H]2[C@@H](C(=O)NC(CC3CCC3)C(=O)C(N)=O)N(C(=O)[C@@H](NC(=O)NC3(C(=O)OCc4ccc5ccccc5c4)CCCCC3)C3CCCCC3)C[C@@H]21` (stereo partly drawn) [compound 4651], the inhibition constant (Ki) is greater than 0.25 µM.
In the case of `CCCCC(NC(=O)[C@@H]1[C@H]2CC(C)(C)O[C@H]2CN1C(=O)[C@@H](NC(=O)N[C@H](C(=O)OCc1ccccc1)C(C)C)C(C)(C)C)C(=O)C(=O)NCCC(=O)OC(C)(C)C` (stereo partly drawn) [compound 4652], the Ki is greater than 0.25 µM.
As for `CCOC(=O)CNC(=O)N[C@H](C(=O)N1C[C@H]2[C@@H]([C@H]1C(=O)NC(CC1CCC1)C(=O)C(N)=O)C2(C)C)C1CCCCC1` (stereo partly drawn) [compound 4653], the Ki is greater than 0.25 µM.
Consider `CC(C)(C)[C@H](NC(=O)NC1(C(=O)OCc2ccccc2)Cc2ccccc2C1)C(=O)N1C[C@H]2[C@@H]([C@H]1C(=O)NC(CC1CCC1)C(=O)C(N)=O)C2(C)C` (stereo partly drawn) [compound 4654], for which the Ki is greater than 0.25 µM.
Same read-out and setting: for `CC(C)(C)[C@H](NC(=O)NC1(C(=O)OCc2ccccc2)CCOCC1)C(=O)N1C[C@H]2[C@@H]([C@H]1C(=O)NC(CC1CCC1)C(=O)C(N)=O)C2(C)C` (stereo partly drawn) [compound 4655] the value was greater than 0.25 µM; for `CCC(C)C(NC(=O)N[C@H](C(=O)N1C[C@H]2[C@@H]([C@H]1C(=O)NC(CC1CC1)C(=O)C(N)=O)C2(C)C)C1CCCCC1)C(=O)OCc1ccccc1` (stereo partly drawn) [compound 4657], greater than 0.25 µM; for `CC(C)C[C@H](NC(=O)N[C@H](C(=O)N1C[C@H]2[C@@H]([C@H]1C(=O)NC(CC1CCC1)C(=O)C(N)=O)C2(C)C)C(C)(C)C)C(=O)OCc1ccccc1` (stereo partly drawn) [compound 4658], greater than 0.25 µM.
`CC(C)[C@H](NC(=O)N[C@H](C(=O)N1C[C@@H]2OC(C)(C)C[C@@H]2[C@H]1C(=O)NC(CC1CC1)C(=O)C(=O)NCCC(=O)OC(C)(C)C)C1CCCCC1)C(=O)OCc1ccccc1` (stereo partly drawn) [compound 4659]: the Ki is greater than 0.25 µM.
`CC(C)(C)[C@H](NC(=O)NC1(C(=O)OCc2ccc(-c3ccccc3)cc2)CCCCC1)C(=O)N1C[C@H]2[C@@H]([C@H]1C(=O)NC(CC1CC1)C(=O)C(N)=O)C2(C)C` (stereo partly drawn) [compound 4661]: the Ki is greater than 0.25 µM.
On the same count and under the same terms, as for `CC(C)NC(=O)C(=O)C(CC1CC1)NC(=O)[C@@H]1[C@@H]2[C@H](CN1C(=O)[C@@H](NC(=O)N[C@H](C(=O)OC(C)(C)C)C(C)(C)C)C(C)(C)C)C2(C)C` (stereo partly drawn) [compound 4662], the figure is greater than 0.25 µM; as for `CC(C)(C)[C@@H](NC(=O)N[C@@H](C(=O)N1C[C@H]2[C@@H]([C@H]1C(=O)NC(CC1CCC1)C(=O)C(N)=O)C2(C)C)C(C)(C)C)C(=O)OC1Cc2ccccc2C1` (stereo partly drawn) [compound 4663], greater than 0.25 µM; as for `CC1(C)[C@@H]2[C@@H](C(=O)NC(CC3CCC3)C(=O)C(N)=O)N(C(=O)[C@@H](NC(=O)NC3(C(=O)OCc4ccc(-c5ccccc5)cc4)CCCCC3)C3CCCCC3)C[C@@H]21` (stereo partly drawn) [compound 4665], greater than 0.25 µM.

The same assay, now with this note: Table 4: Carboxylic Acids; read-out: Ki* Range.
As to `CC(C)(C)[C@H](NC(=O)N[C@H](C(=O)N1C[C@H]2[C@@H]([C@H]1C(=O)NC(CC1CCC1)C(=O)C(N)=O)C2(C)C)C(C)(C)C)C(=O)O` (stereo partly drawn) [compound 4703], the Ki was less than 0.075 µM.

The same assay, now with this note: Table 5: Amides; read-out: Ki* Range.
For `CC(C)[C@H](NC(=O)N[C@H](C(=O)N1C[C@H]2[C@@H]([C@H]1C(=O)NC(CC1CC1)C(=O)C(N)=O)C2(C)C)C(C)(C)C)C(=O)NS(=O)(=O)c1ccccc1` (stereo partly drawn) [compound 4800], the inhibition constant (Ki) is less than 0.075 µM.
Same read-out and setting: for `CC[C@H](NC(=O)N[C@H](C(=O)N1C[C@H]2[C@@H]([C@H]1C(=O)NC(CC1CC1)C(=O)C(N)=O)C2(C)C)C(C)(C)C)C(=O)OC(C)(C)C` (stereo partly drawn) [compound 4857] the value was less than 0.075 µM.

Staying with this assay, now noted: Table 6; read-out: Ki* range.
For `CC(C)(C)[C@H](NC(=O)NC1(Cc2ccccn2)CCCCC1)C(=O)N1C[C@H]2[C@@H]([C@H]1C(=O)NC(CC1CC1)C(=O)C(N)=O)C2(C)C` (stereo partly drawn) [compound 4921], the Ki was less than 0.075 µM.
As for `CC(C)(C)[C@H](NC(=O)NC1(Cc2cccs2)CCCCC1)C(=O)N1C[C@H]2[C@@H]([C@H]1C(=O)NC(CC1CC1)C(=O)C(N)=O)C2(C)C` (stereo partly drawn) [compound 4922], the Ki is less than 0.075 µM.
In the case of `CC(C)(C)[C@H](NC(=O)NC1(Cc2ccsc2)CCCCC1)C(=O)N1C[C@H]2[C@@H]([C@H]1C(=O)NC(CC1CC1)C(=O)C(N)=O)C2(C)C` (stereo partly drawn) [compound 4923], the Ki was less than 0.075 µM.
Still for that read-out and setting: for `CC(C)(C)[C@H](NC(=O)NC1(Cc2nccs2)CCCCC1)C(=O)N1C[C@H]2[C@@H]([C@H]1C(=O)NC(CC1CC1)C(=O)C(N)=O)C2(C)C` (stereo partly drawn) [compound 4925] the value was less than 0.075 µM; for `CC(C)(C)[C@H](NC(=O)NC1(Cc2nccs2)CCCCC1)C(=O)N1C[C@H]2[C@@H]([C@H]1C(=O)NC(CC1CCC1)C(=O)C(N)=O)C2(C)C` (stereo partly drawn) [compound 4926], less than 0.075 µM.
With `CC1(C)[C@@H]2[C@@H](C(=O)NC(CC3CC3)C(=O)C(N)=O)N(C(=O)[C@@H](NC(=O)NC3(Cc4cccnc4)CCCCC3)C3CCCCC3)C[C@@H]21` (stereo partly drawn) [compound 4927], the Ki is less than 0.075 µM.
Consider `CC(C)(C)[C@H](NC(=O)NC1(Cc2nccs2)CCCCC1)C(=O)N1C[C@H]2[C@@H]([C@H]1C(=O)NC(CC1CC1)C(=O)C(N)=O)C2(Cl)Cl` (stereo partly drawn) [compound 4928], for which the Ki was less than 0.075 µM.
The same measure, in the same setting: for `CC(C)(C)[C@H](NC(=O)NC1(Cc2nccs2)CCCCC1)C(=O)N1C[C@H]2[C@@H]([C@H]1C(=O)NC(CC1CCC1)C(=O)C(N)=O)C2(Cl)Cl` (stereo partly drawn) [compound 4929] the value was less than 0.075 µM; for `C#CCCC(NC(=O)[C@@H]1[C@@H]2[C@H](CN1C(=O)[C@@H](NC(=O)NC1(Cc3ccccc3)CCCCC1)C(C)(C)C)C2(C)C)C(=O)C(=O)NCC=C` (stereo partly drawn) [compound 4930], less than 0.075 µM; for `CC(C)(C)[C@H](NC(=O)NC1(C(F)(F)c2ccccc2)CCCCC1)C(=O)N1C[C@H]2[C@@H]([C@H]1C(=O)NC(CC1CC1)C(=O)C(N)=O)C2(C)C` (stereo partly drawn) [compound 4931], less than 0.075 µM.
As to `CC1(C)[C@@H]2[C@@H](C(=O)NC(CC3CC3)C(=O)C(N)=O)N(C(=O)[C@@H](NC(=O)NC3(Cc4ccccn4)CCCCC3)C3CCCCC3)C[C@@H]21` (stereo partly drawn) [compound 4933], the Ki is less than 0.075 µM.
Turning to `CC1(C)[C@@H]2[C@@H](C(=O)NC(CC3CC3)C(=O)C(N)=O)N(C(=O)[C@@H](NC(=O)NC3(Cc4cccc(O)c4)CCCCC3)C3CCCCC3)C[C@@H]21` (stereo partly drawn) [compound 4934], the Ki was less than 0.075 µM.
In the case of `C#CCCC(NC(=O)[C@@H]1[C@@H]2[C@H](CN1C(=O)[C@@H](NC(=O)NC1(Cc3cccc(OC)c3)CCCCC1)C(C)(C)C)C2(C)C)C(=O)C(=O)NCC=C` (stereo partly drawn) [compound 4935], the Ki is less than 0.075 µM.
`C#CCCC(NC(=O)[C@@H]1[C@@H]2[C@H](CN1C(=O)[C@@H](NC(=O)NC1(Cc3ccccc3)CCCCC1)C(C)(C)C)C2(C)C)C(=O)C(N)=O` (stereo partly drawn) [compound 4936]: the inhibition constant Ki was less than 0.075 µM.
For `CC(C)(C)[C@H](NC(=O)NC1(Cc2cccc(O)c2)CCCCC1)C(=O)N1C[C@H]2[C@@H]([C@H]1C(=O)NC(CC1CC1)C(=O)C(N)=O)C21CCCC1` (stereo partly drawn) [compound 4937], the inhibition constant Ki is less than 0.075 µM.
On to `CC1(C)[C@@H]2[C@@H](C(=O)NC(CC3CC3)C(=O)C(N)=O)N(C(=O)[C@@H](NC(=O)NC3(Cc4cccs4)CCCCC3)C3CCCCC3)C[C@@H]21` (stereo partly drawn) [compound 4938], for which the Ki was less than 0.075 µM.
Consider `CC(C)(C)[C@H](NC(=O)NC1(Cc2ccccn2)CCCCC1)C(=O)N1C[C@H]2[C@@H]([C@H]1C(=O)NC(CC1CCC1)C(=O)C(N)=O)C2(C)C` (stereo partly drawn) [compound 4939], for which the Ki was less than 0.075 µM.
Consider `CC1(C)[C@@H]2[C@@H](C(=O)NC(CC3CC3)C(=O)C(N)=O)N(C(=O)[C@@H](NC(=O)NC3(Cc4ccsc4)CCCCC3)C3CCCCC3)C[C@@H]21` (stereo partly drawn) [compound 4940], for which the Ki was less than 0.075 µM.
Take `CC(C)(C)[C@H](NC(=O)NC1(Cc2ccccn2)CCCCC1)C(=O)N1C[C@H]2[C@@H]([C@H]1C(=O)NC(CC1CC1)C(=O)C(N)=O)C21CCCC1` (stereo partly drawn) [compound 4941]: the Ki is less than 0.075 µM.
Regarding `CC(C)(C)[C@H](NC(=O)NC1(Cc2ccccc2)CCC(F)(F)CC1)C(=O)N1C[C@H]2[C@@H]([C@H]1C(=O)NC(CC1CC1)C(=O)C(N)=O)C2(C)C` (stereo partly drawn) [compound 4942], the Ki was less than 0.075 µM.
For `CC(C)(C)[C@H](NC(=O)NC1(Cc2cccc(O)c2)CCCCC1)C(=O)N1C[C@H]2[C@@H]([C@H]1C(=O)NC(CC1CCC1)C(=O)C(N)=O)C2(C)C` (stereo partly drawn) [compound 4943], the Ki was less than 0.075 µM.
In the case of `CC(C)(C)[C@H](NC(=O)NC1(Cc2cccnc2)CCCCC1)C(=O)N1C[C@H]2[C@@H]([C@H]1C(=O)NC(CC1CC1)C(=O)C(N)=O)C2(C)C` (stereo partly drawn) [compound 4944], the Ki is less than 0.075 µM.
Take `COc1cccc(CC2(NC(=O)N[C@H](C(=O)N3C[C@H]4[C@@H]([C@H]3C(=O)NC(CC3CC3)C(=O)C(N)=O)C4(C)C)C(C)(C)C)CCCCC2)c1` (stereo partly drawn) [compound 4945]: the Ki is less than 0.075 µM.
